# Measured values: PubChem BioAssay AID493208 (National Center for Advancing Translational Sciences (NCATS), 2011)
# The campaign covered roughly 44,000 compounds. About 340 (0.77%) were called active. Another 5% or so got no clear call; they are omitted. Calls come from the whole dose curve; as a rule, active = well fitted inhibition curve with a large enough effect; inconclusive = small, poorly fitted or top-dose-only effect; inactive = flat fitted curve, though single readings scatter. The list shows a part of the results.
# Experiment: Acumen qHTS Assay for Inhibitors of the mTORC1 Signaling Pathway in MEF (Tsc2-/-, p53-/-) Cells: Sytravon; note: nearly all actives have a fitted effect of over 50% in size;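 for activity change, negative = inhibition: plate controls were DMSO for no effect and rapamycin for full effect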
# Settings: phospho-rpS6 immunofluorescence/PI, 24 h; series mostly up to 38.3 µM; activity change, negative = inhibition: at the top concentration
# Outline: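 Tsc2-/-, p53-/- MEFs (empty-vector stable line) in DMEM + 10% FBS were treated with compounds 24 h at 37 degree Celsius, fixed, and immunostained for phospho-rpS6 (Alexa-488) with propidium iodide counterstain. Laser-scanning cytometry gave % positive cells, normalized against 7.5 nM rapamycin and DMSO.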
# Potency is the fitted concentration of half-maximal effect.
Structure (SMILES),"activity change, negative = inhibition",Potency
COC(=O)CN1C(=O)CSc2ccc(S(=O)(=O)Nc3cc(C)ccc3C)cc21,inactive: -6.11%,
CCc1nn2c(=O)cc(COC(=O)COc3ccc(OC)cc3)nc2s1,inactive: 8.03%,
COc1cccc(-n2c(=O)c3sc4ccccc4c3n(CC(=O)NC3CCCCC3)c2=O)c1,inactive: -1.89%,
Cc1c(NC(=O)c2ccc(-c3cccc([N+](=O)[O-])c3)o2)cccc1-c1nc2cc(Cl)ccc2o1,inactive: -16.3%,
CCOC(=O)c1cc2c(=O)n3ccccc3nc2n(CCOC)c1=NC(=O)c1c(-c2ccccc2Cl)noc1C,inactive: -2.01%,
Cn1c(=O)oc2cc(S(=O)(=O)NCCC(=O)Nc3ccc(F)cc3F)ccc21,inactive: -1.74%,
Cc1cc(OCC(=O)Nc2ncn[nH]2)ccc1Cl,inactive: -0.694%,
Cc1ccc(S(=O)(=O)N(CC(=O)Nc2ccc3c(c2)OCO3)c2cc(Cl)cc(Cl)c2)cc1,inactive: -5.98%,
CCN(CC)S(=O)(=O)c1ccc(OC)c(-n2cnnn2)c1,inactive: -2.18%,
O=C(NCCC1=CCCCC1)c1ccc2c(c1)N(Cc1cccc(Cl)c1)C(=O)c1ccccc1S2=O (stereo not given),inactive: -3.19%,
CC(C)CCNC(=O)Cc1ccc(NC(=O)N2CCCCc3ccccc32)cc1,inactive: -13.5%,
COc1ccc(CNC(=O)Cn2c(=O)nc(-c3ccccc3)c3ccccc32)cc1OC,inactive: 1.53%,
CCCCC(=O)NC1CC(=O)N(c2ccc3c(c2)OCCO3)C1 (stereo not given),inactive: -3.44%,
Cc1nc2c(-c3ccc(F)cc3)c(C)nn2c(C)c1CCC(=O)N1CCN(c2ccccc2)CC1,inactive: -3.54%,
COC(=O)c1cc2oc3ccccc3c2n1Cc1nc(-c2ccc(Cl)cc2)oc1C,inactive: 0.216%,
CCN(C(=O)Cn1nnc2sc3c(c2c1=O)CCC(C(C)(C)C)C3)c1cccc(C)c1 (stereo not given),inactive: 4.28%,
CCCCn1c(SCC(=O)c2ccccc2)nc2c(sc3ccccc32)c1=O,inactive: 4.27%,
CCc1ccc(CNC(=O)c2nn(-c3ccc(C)cc3)c(=O)c3c2c2ccccc2n3C)cc1,inactive: -0.862%,
COc1cc(CCC(=O)NCc2ccc3c(c2)CCN3C(=O)c2ccccc2)cc(OC)c1OC,inactive: -4.22%,
CCC1CN(S(=O)(=O)c2cc(-c3cc(C)no3)ccc2C)c2cc(C)ccc2O1 (stereo not given),inactive: -10.3%,
Cc1ccc(-n2nc3ccc(NC(=O)COc4ccccc4C)cc3n2)cc1,inactive: 13%,
COc1ccc(-c2nnc(SCC(=O)NCCc3ccc(OC)c(OC)c3)nc2-c2ccc(OC)cc2)cc1,inactive: -7.97%,
Cc1nc2cccnc2n1-c1cccc(C(=O)N2CCN(c3cccc(Cl)c3)CC2)c1,inactive: -5.23%,
Cc1ccc(C)c(N2CCN(S(=O)(=O)c3cc(-c4cc(C)no4)ccc3C)CC2)c1,inactive: 1.58%,

Structure (SMILES),"activity change, negative = inhibition",Potency
Cc1ccc(-c2nnc(Nc3cccc(Cl)c3)c3ccccc23)cc1S(=O)(=O)N1CCCCC1,inactive: 3.58%,
Cc1ccc(-n2nc(CO)c(C(=O)NCCCCc3ccccc3)n2)cc1C,inactive: 0.0534%,
CSc1ccc(CCNC(=O)c2cc(C)nc3c2c(C)nn3-c2ccccc2)cc1,inactive: -4.98%,
O=C(CN1C(=O)C(c2ccc(F)cc2)=NC12CCCCCC2)Nc1ccccc1Cl,inactive: 0.617%,
Cc1cc(C)c(NC(=O)Cn2nc(-c3ccncc3)ccc2=O)c(C)c1,inactive: 5.21%,
CCCn1c(=O)n(-c2ccccc2Cl)c(=O)c2sc3ccccc3c21,inactive: 1.3%,
CC1=Nc2cc(C(=O)NCc3ccccc3Cl)ccc2Sc2c(C)ccc(C)c21,inactive: -16.6%,
COc1ccc(C)cc1NC(=O)c1c2c(nc3ccccc13)C(=O)N(C1CCCCC1)C2,inactive: -11.5%,
Cc1ccc(Cl)cc1NC(=O)C(Cc1ccccc1)NS(=O)(=O)c1cccc2nsnc12 (stereo not given),inactive: -14.2%,
Cc1ccc(-c2cc3ncc(C(=O)c4cc(Cl)c(C)cc4O)cn3n2)cc1,inactive: -4.7%,
CCOc1ccc(Br)cc1C1C(C(=O)OC)=C(C)NC2=C1C(=O)c1ccccc12 (stereo not given),inactive: 1.67%,
CCN(C(=O)CSc1ncc2c(n1)-c1cc(Cl)ccc1N(Cc1ccccc1)S2(=O)=O)c1cccc(C)c1,inactive: 8.29%,
CCc1c(C)sc2c1CCN(C(=O)Nc1ccccc1C(=O)OC)C2c1ccc(OC)cc1 (stereo not given),inactive: 0%,
Cc1ccc(NS(=O)(=O)c2ccc3c(c2)CC(=O)N3)cc1Cl,inactive: 2.71%,
COc1ccc(OC)c(C2Nc3c(C)cc(C)cc3-c3cc(C)nn32)c1 (stereo not given),inactive: -13.1%,
CCn1c(=O)cc(OCC(=O)N(C)c2ccc(OC)cc2)c2ccccc21,inactive: -14.8%,
O=C(NCc1ccc(Cl)cc1)C1=Cc2cc(Br)ccc2OC1,inactive: 1.06%,
CCOc1ccc(NC(=O)CN2C(=O)C(c3ccc(Cl)cc3)=NC2(C)C)cc1,inactive: 2.44%,
CCC(=O)N1CCc2cc(Br)cc(S(=O)(=O)N3CCCC(C(=O)Nc4cc(C)ccc4OC)C3)c21 (stereo not given),inactive: -8.74%,
Cc1ccc(Cl)cc1N1CCN(C(=O)c2cc3ccc4cccnc4c3[nH]2)CC1,inactive: -24%,
COc1cc(OC)c(NC(=O)c2c(N3CCCC3=O)c3cc(C)ccc3n2C)cc1Cl,inactive: 0%,
COc1ccc(Cl)cc1C(=O)Nc1ccc2nc(Nc3cccc(Cl)c3)cc(C)c2c1,inactive: -1.94%,
CCCc1ccc(S(=O)(=O)N2CCC(c3nnc(-c4cccc(C)c4)o3)CC2)cc1,inactive: -2.6%,
CCOc1ccccc1NC(=O)Cn1ncc2c([nH]c3ccccc32)c1=O,inactive: -1.18%,

Structure (SMILES),"activity change, negative = inhibition",Potency
CCn1c(=O)c2cc(C(=O)NCCCN3CCN(c4ccc(F)cc4)CC3)sc2c2ccccc21,inactive: -2.77%,
Cc1ccccc1OCC(=O)Nc1nnc(S(=O)(=O)N2CCCC2)s1,inactive: 2.76%,
CC(C)Oc1ccc(CNC(=O)c2ccc3c(c2)nc2n3CCCCC2)cc1,inactive: -6.93%,
COc1ccc(C2=C(C)C(=O)N(Cc3ccc(C(=O)NC(C)c4ccccc4)cc3)S2(=O)=O)cc1 (stereo not given),inactive: -5.75%,
CCOc1ccc(N2CC(c3nc4ccccc4n3CCCCOc3ccc(OC)cc3)CC2=O)cc1 (stereo not given),inactive: -1.51%,
Cc1cc(=O)n2nc(N3CCC(C(=O)Nc4c(C)cccc4C)CC3)sc2n1,inactive: -13.2%,
Cc1cccc(N2C(=O)CSC23C(=O)N(CC(=O)Nc2cccc(Cl)c2)c2ccccc23)c1 (stereo not given),inactive: -4.66%,
CC1CCN(S(=O)(=O)c2cc3c4c(c2)C(C)C(=O)N4CCC3)CC1 (stereo not given),inactive: -0.043%,
O=C(NC1CCCCCC1)C1c2ccccc2C(=O)N1Cc1ccc(F)cc1 (stereo not given),inactive: -3.73%,
COc1ccccc1CCN1COc2c(cc3c(C)c(C)c(=O)oc3c2C)C1,inactive: -10.7%,
COc1ccc(CNC(=O)CN2C(=O)CSc3ccc(S(=O)(=O)N(C)C)cc32)cc1,inactive: -19.6%,
CCOC(=O)c1cc(C)n(CC2CCC(C(=O)Nc3cccc(Cl)c3)CC2)c1C (stereo not given),inactive: 2.11%,
CCN(CC)c1ccc(NC(=O)CN2CCN(c3ccccc3OC)CC2)cc1,inactive: 13.4%,
Oc1c(C(c2ccccc2)N2CCOCC2)sc2nc(-c3ccco3)nn12 (stereo not given),inactive: -0.391%,
Cc1cc(C)cc(NC(=O)c2sc3nc4n(c(=O)c3c2C)N=C(c2ccccc2)CS4)c1,inactive: 0.917%,
Nc1c(C(=O)Nc2cccc(F)c2)nnn1-c1cccc(C(F)(F)F)c1,inactive: -1.12%,
CCOCCCNc1nc2c(S(=O)(=O)c3ccc(CC)cc3)nnn2c2ccc(Cl)cc12,inactive: 0.502%,
O=C(Cn1ncc2c3ccccc3n(Cc3cccc(Cl)c3)c2c1=O)NCCCN1CCCCC1,inactive: 2.82%,
Cc1ccc(CNC(=O)Cn2c(=O)cc(C)c3c(C)nn(-c4cccc(F)c4)c32)cc1,inactive: -9.92%,
Cc1ccc(C)c(N2CCN(S(=O)(=O)c3ccc(-c4cnc(C5CC5)o4)cc3)CC2)c1,inactive: 13.2%,
CCOc1ccccc1CN1CCc2nc(N3CCN(C)CC3)ncc2C1,inactive: 12.3%,
Cc1ccc(NC(=O)CSc2nc(-c3cccs3)nc3cc(=O)[nH]n23)cc1C,inactive: -3.77%,
COc1ccc(-c2cn3cccnc3n2)cc1NC(=O)Nc1cc(C)ccc1C,inactive: -17.7%,
O=C(NCCc1ccccc1)C1CCN(Cc2cc3ccccc3n2Cc2ccccc2)CC1,inactive: -16.7%,

Structure (SMILES),"activity change, negative = inhibition",Potency
CN1C(C(=O)c2ccccc2)=C(NC(=O)c2ccc(F)cc2)c2ccccc2S1(=O)=O,inactive: -17%,
COc1ccc(COC(=O)C2=C(C)NC(=O)CC2c2cccc(Cl)c2Cl)cc1 (stereo not given),inactive: -24.8%,
CCOc1ccc(-c2cc(C(=O)NC(C)c3ccccc3)c3ccccc3n2)cc1 (stereo not given),inactive: 5.19%,
O=C(Nc1ccc(C(=O)N2CCN(c3ccccc3F)CC2)cc1)c1nsc2ccccc12,inactive: 6.18%,
O=C(NCCc1ccc(Cl)cc1)c1ccc2c(c1)nc1n2CCOC1,inactive: 3.52%,
CN(C)CCN(Cc1ccco1)C(=O)c1cc2c(s1)-c1ccccc1OC2,,active: 5.21 µM
COc1ccc(-c2onc(C)c2C)cc1S(=O)(=O)Nc1cccc(C#N)c1,inactive: 2.81%,
CCOC(=O)N1CCc2c(sc3c2c(=O)n(-c2ccc(F)cc2)c(=O)n3CC(=O)c2ccc(Cl)cc2)C1,inactive: -14.6%,
Cc1cccc(C(=O)NC2(C(F)(F)F)N=C(c3ccccc3)N(C3CCCCC3)C2=O)c1 (stereo not given),inactive: 1.23%,
CCc1ccc(NS(=O)(=O)c2ccc(-c3cc(C)no3)cc2)cc1,inactive: -20.3%,
CC(=O)C1=C(c2ccc(F)cc2)N(C(C)=O)n2c(nnc2C2CCCCC2)S1,inactive: -5.24%,
CCOc1ccc(C(=O)NCC(c2ccc(Cl)cc2)N2CCCCC2)cc1 (stereo not given),inactive: -2.52%,
Cc1cc(C)c(NC(=O)C(C)n2c(=O)cc(-c3ccccc3)c3c(C)nn(C)c32)c(C)c1 (stereo not given),inactive: -0.925%,
CCCCNc1ccc(-c2nc(-c3ccccn3)no2)cc1[N+](=O)[O-],inactive: 1.33%,
COc1ccc(-c2nnn3c2nc(NCc2ccc(C)cc2)c2ccccc23)cc1,inactive: 7.41%,
CCCNC(=O)CSc1c(CCC)cnc2c1c(=O)n(C)c(=O)n2C,inactive: 0.35%,
O=C(CN1C(=O)C2(SCC(=O)N2c2cccc(F)c2)c2ccccc21)NCCc1ccccc1 (stereo not given),inactive: -0.992%,
CCOC(=O)c1cnc(N2CCN(c3cccc(C)c3C)CC2)c2ccccc12,inactive: 0.721%,
O=C(NCCc1csc(-c2cccnc2)n1)c1ccccc1,inactive: 2.23%,
Cc1ccccc1C(=O)OCc1cc(=O)n2nc(C3CCCCC3)sc2n1,inactive: -18.2%,
Cc1nnc2c(N3CCN(c4ccc(F)cc4)CC3)nc3ccc(C(=O)c4ccccc4)cc3n12,inactive: 0.078%,
CCOC(=O)c1cc(-c2ccc(OC)c(S(=O)(=O)NCc3ccccc3Cl)c2)on1,inactive: 4.23%,
CC1CCCCN1CCCNC(=O)CN1C(=O)CSc2ccc(S(=O)(=O)N3CCOCC3)cc21 (stereo not given),inactive: 9.84%,
